# Source: the supplement of paper PMC10185492
# This is one part of the list. Values come from read counts of a selection and are noisy.
# Test system: SARS-CoV-2 3CLpro (nsp5)
# Assay: substrate phage enrichment score (protease-eluted vs HEPES control, +1 offset) (ratio); higher = better cleaved substrate
# Settings: selection round: 4; protease elution time: 15 min
# Experimental: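 Random heptapeptide substrate phage display (M13 pIII fusion, heptapeptide between an N-terminal biotinylated AviTag GLNDIFEAQKIEWHE and pIII; phages immobilised on streptavidin) eluted by cleavage with 50 nM protease in 20 mM HEPES at 37 °C. Selected phages were NGS sequenced, and the enrichment score is (reads in protease sample + 1)/(reads in HEPES blank-selection control + 1).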
row,Substance,substrate phage enrichment score
1,ESCSLGK,6.6
2,VDATETT,0.167
3,RDACFLT,2.67
4,TDLNGTQ,> 36
5,LRRSCRV,> 31
6,DVFSAGD,7.6
7,DANLGTC,2.67
8,RAPTAAD,> 37
9,TKPNCSP,0.6
10,GIPLQAQ,> 36
11,RVVVRPH,0.706
12,DKKGEAN,4.75
13,NQWNEGY,> 41
14,RDGTTTG,> 32
15,DNKPSYN,6
16,WNPCLTC,0.917
17,HMGTCGH,0.389
18,QVGAMTA,> 104
19,MSTRLQC,> 175
20,RRRRCCR,> 23
21,ARKRPYD,6.33
22,CRRTRRI,0.0769
23,SCAAAHH,0.867
24,NTAAHHH,0.689
25,CGAQISI,> 21

row,Substance,substrate phage enrichment score
1,TAPTKLQ,> 78
2,VRVSSPG,1.19
3,PSLYFQG,3.82
4,QSPNSSG,25.3
5,SAPWGTY,> 34
6,RGCTWSE,> 94
7,STAHHHH,0.645
8,QKTGVDH,> 24
9,EGFTSTQ,> 31
10,TCPDVRL,0.692
11,SWAAHHH,2.38
12,PVFADTL,> 28
13,ECKVQLN,39
14,RTNATLQ,> 33
15,PTFPNKE,0.938
16,DCAHRHG,1.25
17,FPAAHHH,1.44
18,AAETDRR,> 23
19,KPFPQPR,2.03
20,AVGDGSR,3.4
21,SDHTLKH,0.613
22,SRVKAHT,1.14
23,QMAVTPK,0.833
24,IKAAHHH,0.727
25,RGCRRTV,14.5

row,Substance,substrate phage enrichment score
1,PIPEVAQ,4.4
2,LEFDLTT,> 35
3,EQGRPSV,3.25
4,ETAAHHH,1.3
5,LSKSCKH,2
6,KAQNQRW,> 29
7,RTQRTKG,7
8,RFCRRMG,> 43
9,LWQDRTE,> 24
10,TTAGTVT,0.692
11,ESSAHHH,1.33
12,PEPGSPP,12
13,SAAAHHR,0.9
14,ASTSWVK,2.5
15,CIGAFKR,1.17
16,RTNSNYR,> 21
17,VMWCLHG,> 45
18,SREKQSY,1.44
19,LYAPRTT,> 24
20,EGAPQTH,> 53
21,KDLRSQA,0.217
22,ESEQMSP,0.762
23,RPGDNGK,> 45
24,LPCVSEH,> 31
25,PNNQGGS,1.09

row,Substance,substrate phage enrichment score
1,KEMSSLQ,> 31
2,SATQTTS,> 38
3,RPSASQR,1.06
4,KYAPSSS,> 33
5,GDEMNPA,2
6,YDVQKIR,1.52
7,RPAASRQ,7.25
8,TPDLHDR,12.5
9,EDRLYKP,> 35
10,WERTSSC,> 23
11,LHFQGGS,1.5
12,PQANVLQ,0.3
13,SPAPAPC,0.368
14,TPCRLQH,> 44
15,CTGYCYS,3.89
16,HWTREYG,> 36
17,RSFGPVK,8.25
18,IRSGDKQ,> 25
19,TETPYVP,> 22
20,VPPQMRV,> 47
21,HRAGYMH,1.65
22,CVHATSS,3.33
23,NRTKLPC,0.0556
24,PKLQSHQ,> 56
25,CRFMGYH,> 22

row,Substance,substrate phage enrichment score
1,KPTQWLQ,> 33
2,NRSGNMQ,3.29
3,KPNGQAY,0.318
4,AKRGELR,2.06
5,LPVYGEH,2.67
6,VTSGTTG,5.5
7,GLSGPKA,8.75
8,WVYDTEA,> 28
9,TKPGESP,1.21
10,PGLGSMA,> 65
11,HQCVILQ,> 23
12,RRHPKCR,> 38
13,KAASAAA,> 28
14,TSSRENR,> 68
15,IATTDTY,0.0909
16,RYIQSTT,14
17,ACAAAHH,0.316
18,AAAHQQH,2
19,YSAAHHH,0.355
20,LKDRNLT,2.24
21,VTVDPHR,> 34
22,NYLSQEY,0.103
23,SCLCSSG,> 23
24,HCVPDLG,1.2
25,RPGHVQI,> 22

row,Substance,substrate phage enrichment score
1,RNSSRVQ,1.88
2,VRCWLPH,> 21
3,KENTVMG,2.67
4,LPQNVQT,> 36
5,RPVVKQQ,0.875
6,SDTHATE,13.3
7,NATAHHH,1.07
8,TTDLTTK,3
9,HYHHHGA,0.438
10,NRGGLKQ,37
11,TTCSLPH,> 26
12,AHRDECC,> 21
13,RCLQGVN,0.069
14,ESVSHLQ,> 32
15,VQTRLQS,> 163
16,VSDTSWP,3.4
17,PNMATSR,2.48
18,SSSGDCQ,1.14
19,NRNAGIE,> 66
20,QTGWCSD,1.82
21,LKWNTDG,0.87
22,LPCVILQ,> 54
23,VSCSSCN,> 63
24,PADLNGR,1.21
25,SSTSQLS,4.29

row,Substance,substrate phage enrichment score
1,VRPHNII,1.16
2,QKETLSL,0.333
3,CSTLLQS,> 382
4,RYQELNP,> 129
5,QGPQHLG,0.375
6,EMSKPIE,0.929
7,SLKCFRG,5.78
8,TSGINPV,0.15
9,QSRDTQG,2.43
10,ATLPAGG,> 22
11,ELTPDNY,> 34
12,PSSGDHR,3
13,NSHLPMK,0.55
14,ENNWQGD,> 31
15,EQARAGN,3.46
16,SIATWSC,> 30
17,RHHHHGA,0.846
18,HHHQGGS,13.5
19,RSDVKPM,2.71
20,HFQGGSA,1.73
21,TESVTLQ,34.2
22,YACGLDR,6.5
23,PHQNPGE,> 23
24,RRWETMP,1.5
25,PFNGTTP,8.14

row,Substance,substrate phage enrichment score
1,GRDEMNH,10.5
2,HTKCVSL,4.75
3,HGTSALQ,> 31
4,SVPTAHH,> 60
5,NWAAHHH,0.279
6,RHMQPRY,> 23
7,GVSQPHH,1.25
8,QSGSSRH,2.29
9,VAANGSR,> 58
10,VGKMHDC,0.545
11,NSAAAHH,0.765
12,TYVGTCR,> 23
13,ANSSFMR,> 55
14,VCLQASQ,> 23
15,GCSTLQS,> 21
16,QAAAHHH,0.869
17,AQSDEIP,9.57
18,QQVKPLS,1.9
19,SVEIGTV,1.75
20,SRAAHHH,0.395
21,PYVSPGP,> 22
22,YAKNGRS,21.5
23,TQHRDFR,3.33
24,QRYFQGG,0.0909
25,RTNPSNR,> 37

row,Substance,substrate phage enrichment score
1,PPKAQSG,1.81
2,VPQNAGT,2.7
3,PKYNVNV,> 29
4,MLPDSLR,> 31
5,PLVGTHT,> 70
6,STDGQWQ,3.12
7,AKYNQNA,3.57
8,STDWHPR,0.278
9,SRQVVLQ,> 33
10,RTEPAAH,> 39
11,SRGIETC,1.55
12,LPDTHAR,> 38
13,FISPSKQ,4.45
14,VNGNDLQ,2.2
15,FQSSRST,0.444
16,DFVLPRG,> 23
17,RSGTEKC,> 29
18,AFNTVGR,1.93
19,KEHLDDW,> 37
20,GSESMAS,> 21
21,SARSTVI,4.75
22,TGCKQEK,> 65
23,TDRSHSR,> 43
24,DVRYSAQ,3.17
25,RVTLHGR,> 43

row,Substance,substrate phage enrichment score
1,LTNCRIK,4
2,TKSDPPR,> 27
3,QFSTLQG,7
4,PSRSHGN,2.73
5,RHLVSKP,9.33
6,NPLSECM,1.86
7,EKPSRLQ,> 31
8,NQNPPLK,> 21
9,SPLHRNR,1.67
10,KRGNAAA,7.5
11,CCELQSL,> 21
12,KCSHPSR,> 41
13,GLGDSAW,5
14,VQGAIPP,> 25
15,AKIRECR,> 27
16,ESALTNR,> 30
17,LITAPHT,3.4
18,EHGKLRS,4.5
19,ETYRTCH,0.118
20,NAHPTLQ,> 96
21,SSARRPG,6.82
22,LQAKPNR,0.565
23,ARPHNRL,> 28
24,SSQTWTV,1.85
25,ESGARLG,36.8

row,Substance,substrate phage enrichment score
1,GRSSSDM,1.67
2,SERTLKC,0.968
3,YPSPVIP,0.0926
4,TGNSGSR,0.294
5,LQVLNKE,> 22
6,GTAAAHH,0.616
7,VNSAGQR,18.7
8,ESNSRSR,1.08
9,PCAKKGE,> 22
10,HESHSAG,0.13
11,FNSGPQR,> 41
12,SSLATPQ,4.8
13,NSELSRD,> 27
14,DYHGGNP,1.33
15,KQPSHCK,3
16,RPGVDFR,13.3
17,SNGAQVH,2.33
18,HHPAGGP,0.0235
19,NTRPKLQ,> 76
20,PSQNRTT,> 26
21,ESGGRIM,> 31
22,SYNESWQ,0.0833
23,SATTRLQ,> 483
24,SAAANHH,0.795
25,QTGTLNH,> 48

row,Substance,substrate phage enrichment score
1,KETQETE,8.12
2,NSAPSFS,1
3,RSVPQAE,> 55
4,ACEATFQ,> 52
5,EVRDECS,0.15
6,MPSRYSP,> 103
7,LPYADIR,> 22
8,CAAAHHQ,0.783
9,KCSGSKP,> 34
10,TCIPIIQ,> 72
11,SGSSWES,> 52
12,EAPACTK,0.114
13,SRPAQLQ,> 87
14,CGLTCDR,0.087
15,QTNPISR,2.14
16,SDESRLH,> 42
17,KNRTMLQ,> 94
18,ARHGEAH,> 26
19,SRHSLET,29.5
20,ATRCVSK,10
21,QTPGPGL,1.41
22,RPSALTH,3
23,KSCPLAA,12.5
24,RTVPLNR,3.5
25,HMKRSPS,2.67

row,Substance,substrate phage enrichment score
1,MKNPAHN,16.7
2,GHESHEP,7.75
3,LDTSFQG,> 25
4,EIGCRLM,> 26
5,VWPRGPQ,> 54
6,NTTLQSN,> 28
7,VAFELRP,0.222
8,HEQYFQG,38
9,THVCGPR,> 47
10,PESRGII,> 34
11,HSWLNAC,1.94
12,CWWTPHH,> 22
13,SATPTLQ,20
14,MPRCTQS,4.17
15,SNARGDR,2.57
16,RLGHGLN,0.611
17,AGDIDMR,> 22
18,YIPLSGR,9.25
19,PRSPSMN,1.8
20,QQSLICR,> 75
21,GYFQGGS,0.65
22,GSITTPN,> 81
23,DRSQNPL,0.167
24,TNVPFLM,> 29
25,TRTDSLQ,> 27

row,Substance,substrate phage enrichment score
1,KQSDTVI,> 32
2,WTAAHHH,0.708
3,LNKQSFM,11.5
4,PESSHSS,4.22
5,RSEHKAQ,1.9
6,LNQHMRS,8
7,KSSPPAH,> 292
8,EERYFQG,2.14
9,RFDPYGR,> 40
10,CRRSIRD,0.588
11,LKTTCKE,0.211
12,PTAAHHH,0.961
13,TKCPTRS,4.9
14,WAALCPN,6
15,PHIHLRD,> 44
16,VTTLHSM,14.5
17,RHSDLLG,2.14
18,HRQRDHR,> 24
19,GQPTTSA,> 24
20,THESDEM,0.333
21,LTGVDCA,58
22,TRRPAQQ,32.5
23,KNELSPD,> 24
24,TADAEIY,19.3
25,IEHDLRQ,0.3

row,Substance,substrate phage enrichment score
1,FDSAAHH,> 29
2,LRTSGCQ,> 42
3,EPYFQGG,1.75
4,CDYPKLQ,16
5,SVRLQSG,> 678
6,GRLGCRR,24.5
7,RPSSSME,1.85
8,VNLTTPK,0.388
9,LNGVRVQ,3.11
10,RRWQMDS,> 25
11,RSAPTTT,1.52
12,IHGDLKA,0.667
13,VKTKDQG,> 22
14,GPTTELM,11.9
15,TQRRENA,0.0741
16,VGIFRLV,5.25
17,LENKVEQ,> 53
